Assay results from the BET-seq Pho4 binding data (Le et al. 2018).
The other results are listed elsewhere or left out. The energies were worked out here from pooled read counts, against the library average; single values are noisy.

Target: T1, Pho4 (S. cerevisiae) (UniProt P07270)
T1 sequence: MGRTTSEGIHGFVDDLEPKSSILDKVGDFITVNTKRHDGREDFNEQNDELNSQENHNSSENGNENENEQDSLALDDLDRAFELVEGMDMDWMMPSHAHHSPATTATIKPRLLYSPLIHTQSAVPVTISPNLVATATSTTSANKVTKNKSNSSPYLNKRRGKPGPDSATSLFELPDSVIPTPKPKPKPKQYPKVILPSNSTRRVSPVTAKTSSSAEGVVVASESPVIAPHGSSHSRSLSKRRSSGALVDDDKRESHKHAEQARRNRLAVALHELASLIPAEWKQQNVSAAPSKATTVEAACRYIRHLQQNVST
Assay: relative binding free energy (BET-seq); higher = weaker binding
Settings: reference: library average

| Sequence | relative binding free energy [kcal/mol] |
| --- | --- |
| TTTTCCACGTGTGCTG | 0.04 |
| ATGTACACGTGTTCGG | -0.03 |
| GAGTACACGTGGTTAT | 0.08 |
| TGGCGCACGTGGAGTG | -0.12 |
| TTGTGCACGTGTCGGT | 0.12 |
| AAATGCACGTGAAGGT | 0.25 |
| GTGGTCACGTGGCCGG | 0.03 |
| TGCAACACGTGTGTGG | -0.06 |
| TATATCACGTGTTAAG | 0.13 |
| CGGGTCACGTGGGGTA | -0.02 |
| GTTAACACGTGGTATT | -0.03 |
| TTTGGCACGTGTTAAG | -0.09 |
| TTGTACACGTGATTTG | 0.19 |
| GAGCACACGTGGGGGG | 0.08 |
| CGTATCACGTGGGTGA | -0.14 |
| ATAATCACGTGTTTGG | 0.14 |
| TTTATCACGTGGGACT | 0.03 |
| ATAGGCACGTGGGCAT | -0.31 |
| TGAATCACGTGTTTGC | 0.13 |
| GGTTACACGTGCTGGC | 0.16 |
| TTATGCACGTGGGACA | -0.15 |
| AAGGTCACGTGGTGAT | 0.05 |
| TGCTGCACGTGTATTT | 0 |

| Sequence | relative binding free energy [kcal/mol] |
| --- | --- |
| ATGAGCACGTGGTTGC | -0.06 |
| ATTTACACGTGGCAGT | -0.02 |
| TTATGCACGTGTGAGC | -0.07 |
| GATGACACGTGAAGTG | 0.26 |
| TTACTCACGTGATGGA | 0.37 |
| AGCTTCACGTGTTGGG | 0.25 |
| TTTGTCACGTGATTAT | 0.31 |
| GCGGGCACGTGTTATA | 0.07 |
| GGATGCACGTGATTGG | 0.17 |
| TAAAGCACGTGAGTTA | 0.34 |
| TGTGTCACGTGCATTC | 0.09 |
| TGAGTCACGTGGATAG | 0.18 |
| GGGTCCACGTGTAGGC | 0.05 |
| TAGCACACGTGAGGGT | 0.21 |
| AGTTTCACGTGGAGCT | 0.12 |
| GTCGGCACGTGAGTGG | 0.24 |
| ATGGACACGTGCGTGG | -0.06 |
| TGATGCACGTGTCGTA | 0.04 |
| AAGGTCACGTGGAGGG | 0.06 |
| TTAAGCACGTGGCAGG | -0.09 |
| AAAGGCACGTGGGAGG | -0.15 |
| TTGGTCACGTGTCGTA | 0.22 |
| TTAGGCACGTGTCGAG | -0.14 |

| Sequence | relative binding free energy [kcal/mol] |
| --- | --- |
| GGGAGCACGTGGTCCT | 0.07 |
| GTGGTCACGTGCGAAG | 0.2 |
| TGTTGCACGTGTCCTG | 0 |
| TGTCTCACGTGATGTT | 0.37 |
| AGGAGCACGTGTTAAG | 0.04 |
| ATTGGCACGTGTAGGC | -0.21 |
| AGATACACGTGGGTAG | -0.19 |
| AAGTCCACGTGGAGGG | -0.11 |
| GTTGACACGTGGCTCG | 0.16 |
| GTTAACACGTGATGCT | 0.15 |
| TAGGGCACGTGGTTAC | -0.13 |
| ATGTTCACGTGTAGAG | 0.25 |
| TTTAACACGTGTAGTG | 0.03 |
| AGAGACACGTGGGGGG | -0.11 |
| TGTATCACGTGGTTAT | 0.02 |
| TTTAACACGTGTAAGT | 0.2 |
| TTGTGCACGTGTCCTT | -0.1 |
| ACGTGCACGTGTTGTC | -0.04 |
| GGTCGCACGTGTTGGG | 0.1 |
| GTAGTCACGTGAAGGC | 0.36 |
| TCGTGCACGTGAAGGT | 0.13 |
| AGGAGCACGTGAGGGT | 0.19 |
| GGCTACACGTGAAGGT | 0.38 |

| Sequence | relative binding free energy [kcal/mol] |
| --- | --- |
| AGGTACACGTGGATGA | 0.1 |
| GTAAACACGTGGTTGT | 0.05 |
| GTTAGCACGTGGTAGT | 0.04 |
| GGGGACACGTGAGTAT | 0.24 |
| ATATGCACGTGCGGTG | -0.16 |
| CTGGTCACGTGAGCGG | 0.16 |
| TTCTGCACGTGGGAGT | -0.07 |
| GGGGGCACGTGACGTG | 0.07 |
| ATTGGCACGTGTTAGA | -0.02 |
| GGGAGCACGTGGACGT | -0.19 |
| ATGGTCACGTGACTAT | 0.26 |
| GAGCTCACGTGGCGGG | 0.31 |
| ATTAGCACGTGGAAGT | 0.04 |
| ATGTGCACGTGTCAAG | 0.01 |
| GTGGGCACGTGCGCGC | -0.29 |
| AGTGACACGTGAGTTG | 0.26 |
| GGTAGCACGTGTGATA | -0.14 |
| TATGGCACGTGTGCTT | -0.05 |
| GTATGCACGTGAAGCG | 0.23 |
| TTGTACACGTGTCGGG | 0.13 |
| GGGCACACGTGTCGGT | 0.17 |
| TAGGCCACGTGTATTT | -0.02 |
| GGGTGCACGTGCAGGA | -0.01 |

| Sequence | relative binding free energy [kcal/mol] |
| --- | --- |
| ATTGTCACGTGTTAGA | 0.15 |
| ATTATCACGTGTAGTT | 0.19 |
| GCGATCACGTGGCGTT | 0.31 |
| TTTTACACGTGAGTAA | 0.32 |
| ACTGTCACGTGTCGTT | 0.21 |
| ATGAGCACGTGGGTAT | -0.31 |
| CGGTTCACGTGGGGTG | 0.03 |
| GGATGCACGTGTGGTC | 0.12 |
| TGGACCACGTGGGTAT | -0.17 |
| GCGGGCACGTGCGTAG | -0.16 |
| ATTGTCACGTGATTCG | 0.24 |
| ATGTACACGTGTAGCT | 0.12 |
| AGGGACACGTGTCAGG | -0.01 |
| GTGTGCACGTGGGTAT | -0.06 |
| AGGATCACGTGGTGTG | 0.11 |
| TACGTCACGTGTGTCT | 0.15 |
| GGGGGCACGTGTATGA | -0.13 |
| TTCTGCACGTGTATTA | -0.05 |
| AGGTACACGTGGGGTT | 0.01 |
| TTGCTCACGTGGGTTG | 0.18 |
| TTAGTCACGTGTCTTT | 0 |
| GGATCCACGTGCGTGG | 0.03 |
| AAGGGCACGTGTGCTG | -0.07 |
